No constants are given. Whether binding was seen depends on the method and setting. In cells and extracts the contact can be indirect. Some entries that bind do so weakly or less than the wild type. For some assays here: Where a sequence is shown, tags or fusion partners need not be part of it.
T1: DivIVA-GFP-His-tag fusion (strain 3308) (B. subtilis) (UniProt P71021)
T1 sequence: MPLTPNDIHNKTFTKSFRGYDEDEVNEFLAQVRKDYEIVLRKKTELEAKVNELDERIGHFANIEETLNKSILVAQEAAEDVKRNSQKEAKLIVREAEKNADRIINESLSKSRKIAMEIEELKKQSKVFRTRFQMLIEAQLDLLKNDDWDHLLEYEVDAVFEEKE

T2: His-DivIVA fusion (strain BSN50) (B. subtilis) (UniProt P71021)
T2 sequence: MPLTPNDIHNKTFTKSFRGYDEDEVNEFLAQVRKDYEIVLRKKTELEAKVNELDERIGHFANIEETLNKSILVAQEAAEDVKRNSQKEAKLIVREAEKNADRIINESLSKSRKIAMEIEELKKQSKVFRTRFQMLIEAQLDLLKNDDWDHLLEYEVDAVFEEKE


Key:
Assay in all cases: cross-linking + pull-down; formaldehyde in vivo cross-linking, His-tagged bait purified by affinity chromatography, cross-links reversed at 95°C; eluates analysed by SDS-PAGE and Western blotting (SecA, DivIVA, GFP antisera)
[1] = biological target: T1, DivIVA-GFP-His-tag fusion (strain 3308) (B. subtilis)
[2] = biological target: T2, His-DivIVA fusion (strain BSN50) (B. subtilis)
[3] = biological target: SecA-His (strain BSN131) (B. subtilis) (UniProt P28366)

binding [1] | binding [2] | binding [3] | Molecule
binds | binds |  | secretion ATPase SecA (from UniProt P28366 1-841) (enzyme)
 |  | no binding | elongation factor Tu (TufA) (from UniProt P33166 1-396)
 |  | binds | DivIVA (protein, UniProt P71021 1-164) MPLTPNDIHNKTFTKSFRGYDEDEVNEFLAQVRKDYEIVLRKKTELEAKVNELDERIGHFANIEETLNKSILVAQEAAEDVKRNSQKEAKLIVREAEKNADRIINESLSKSRKIAMEIEELKKQSKVFRTRFQMLIEAQLDLLKNDDWDHLLEYEVDAVFEEKE
 |  | binds | SecY (protein, UniProt P16336 1-431) MFKTISNFMRVSDIRNKIIFTLLMLIVFRIGAFIPVPYVNAEALQAQSQMGVFDLLNTFGGGALYQFSIFAMGITPYITASIIIQLLQMDVVPKFTEWSKQGEVGRRKLAQFTRYFTIVLGFIQALGMSYGFNNLANGMLIEKSGVSTYLIIALVLTGGTAFLMWLGEQITSHGVGNGISIIIFAGIVSSIPKTIGQIYETQFVGSNDQLFIHIVKVALLVIAILAVIVGVIFIQQAVRKIAIQYAKGTGRSPAGGGQSTHLPLKVNPAGVIPVIFAVAFLITPRTIASFFGTNDVTKWIQNNFDNTHPVGMAIYVALIIAFTYFYAFVQVNPEQMADNLKKQGGYIPGVRPGKMTQDRITSILYRLTFVGSIFLAVISILPIFFIQFAGLPQSAQIGGTSLLIVVGVALETMKQLESQLVKRNYRGFMKN

— publication PMC3924036
